According to the supplement of paper PMC5499739:
In all, about 16,000 sequences were measured (“Z-score”: median about -0.37, highest 2% from about 3.2 on). The list shows a part of the results.

Each sequence was assayed on RBM10 RRM1-ZnF (GST-tagged construct) (assay: RNAcompete 7-mer binding Z-score; higher = stronger binding preference).
Method: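 RNAcompete: 20 pmol GST-tagged RBM10 RNA-binding constructs were incubated with a designed RNA pool of about 241,000 sequences up to 41 nt (1.5 nmol) on glutathione beads for 30 min at 4 °C and washed. Bound RNAs were identified by microarray hybridisation. Each RNA 7-mer is scored by a one-sided Z-score of its enrichment, computed over probes that contain the 7-mer within longer pool sequences.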

Row | Sequence | RNAcompete 7-mer binding Z-score
1 | UACAUGA | -0.171
2 | CGACGGU | 0.267
3 | AUCGCAC | -0.444
4 | CCUGACC | -0.766
5 | GACCCGG | -0.441
6 | GUUUUCU | -0.584
7 | GUAAUCG | 0.0918
8 | GAAGUCC | -0.529
9 | GAAUCAU | -0.324
10 | CUUCUGU | -0.737
11 | UGAUCAA | -0.376
12 | UUCCGAU | -0.805
13 | CAUACAU | -0.457
14 | UACACUA | -0.522
15 | CGUAGCA | -0.331
16 | CGAUUAU | -0.639
17 | GGUCGAC | 0.137
18 | UCGAACA | -0.418
19 | CAUGAUG | -0.136
20 | UGGAUUA | 1.08
21 | AUCGUCU | -0.681
22 | GUAGGUA | 2.15
23 | GCCUUCU | -0.681
24 | CUCGGUA | -0.487

Row | Sequence | RNAcompete 7-mer binding Z-score
25 | GAGCUGA | 0.417
26 | GAAAUUA | -0.373
27 | GCUCCAU | -0.662
28 | CCCUUUU | -0.974
29 | AUUCUCU | -0.792
30 | GUGUAUC | -0.197
31 | CUUUAUA | -0.717
32 | CGGGUAU | 1.59
33 | GGGGUAA | 4.14
34 | GUAUCGA | -0.217
35 | AUAUACG | -0.259
36 | GACUUUC | -0.834
37 | CUAGAUA | -0.412
38 | ACGCGAU | -0.425
39 | GUAUGUC | -0.181
40 | UUUCGUU | -0.626
41 | CCCCGAU | -0.301
42 | GAAAGUU | 0.225
43 | GCCUACG | -0.321
44 | CGUUCAA | -0.646
45 | UACGCGG | 0.374
46 | CGGUUGC | 0.332
47 | GCGCUUA | -0.509
48 | AUAAUGG | 1.73

Row | Sequence | RNAcompete 7-mer binding Z-score
49 | GGGGACA | 3.08
50 | CGCAUUA | -0.578
51 | UCUCCGG | -0.396
52 | UAAAUCA | -0.483
53 | GCUCCUU | -0.746
54 | GGCCGUU | -0.597
55 | UGACACC | -0.399
56 | UUAGACU | -0.555
57 | GGGCGCG | 2.12
58 | GACGGGA | 2.47
59 | GAUAUGU | 0.082
60 | CGCGGAG | 1
61 | GCAAUAU | -0.545
62 | ACACCCG | -0.347
63 | CACAUCU | -0.639
64 | ACAACGC | -0.792
65 | CCGAGCG | 0.056
66 | GGGAACA | 2.67
67 | CAGGUAA | 1.17
68 | CGGUUCG | -0.227
69 | GUGGUCG | 1.2
70 | GGUUACG | 1.39
71 | UUCACCU | -0.805
72 | AAUCCAU | -0.789

Row | Sequence | RNAcompete 7-mer binding Z-score
73 | CCUGUAC | -0.707
74 | ACAGCGA | -0.0674
75 | UUUAAGG | 0.569
76 | CGAGUAG | 0.15
77 | AGUUGUG | 0.371
78 | AUACGGU | 1.07
79 | GCAAAAA | -0.279
80 | CGUGUCA | -0.529
81 | UGCAAUC | -0.604
82 | UAUCCGG | -0.513
83 | UCCGAUA | -0.746
84 | GUGAGCC | 0.00729
85 | UCAAUAU | -0.675
86 | UGCGAUG | 0.15
87 | GUAAGGU | 2.71
88 | UAUUGGC | -0.201
89 | AUGGAAU | 1.69
90 | AUCCGAG | -0.662
91 | GGUAUGG | 4.22
92 | GCAAGAG | 0.537
93 | CAGACGU | -0.272
94 | GCAACAA | -0.295
95 | CUGUUGA | -0.422
96 | CGUGAAU | -0.262

Row | Sequence | RNAcompete 7-mer binding Z-score
97 | GGCAGGC | 1.19
98 | UCCAAAC | -0.675
99 | CUGCCAA | -0.759
100 | GAUACAA | -0.0609
101 | ACUUUCA | -0.828
102 | CCUUGGU | -0.0837
103 | GAGCGGU | 1.72
104 | AUUCAAG | -0.425
105 | AAUGAGU | 0.235
106 | CGGCUAG | 0.238
107 | CGCUCGU | -0.522
108 | AAACUAU | -0.694
109 | CCCUGCG | -0.0155
110 | GCAAGCC | -0.652
111 | CUGGACG | 0.267
112 | GAUUGGG | 3.62
113 | UGGAGAA | 1.88
114 | UCUCUUC | -0.652
115 | UGUAGAG | 0.923
116 | GCUACGC | -0.35
117 | UAGAACA | 0.274
